# Data reported in the supplement of paper PMC8728848.
# Some of the results follow.
# Columns and labels:
# Assay in all cases: glycan array binding signal (z-score within array); higher = stronger binding
# Conditions in all cases: glycan notation: IUPAC condensed, linker removed
# [1] = target: Gal(a1-3)Gal(b1-3)GlcNAc(b1-2)Man
# In short: (§1)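 From the Consortium for Functional Glycomics database, 3228 arrays were curated, keeping only those whose protein sequence was available. Binding is given as a within-array Z-score averaged across arrays sharing a protein sequence and across linkers. Negative Z-scores can be read as non-binding.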
# [2] = target: Gal(a1-3)Gal(b1-3)GlcNAc(b1-2)Man(a1-3)[Gal(a1-3)Gal(b1-3)GlcNAc(b1-2)Man(a1-6)]Man(b1-4)GlcNAc(b1-4)GlcNAc
# In short: as §1
# [3] = target: Gal(a1-3)Gal(b1-3)GlcNAc(b1-3)GalNAc
# In short: as §1
# [4] = target: Gal(a1-3)Gal(b1-3)GlcNAc(b1-6)GalNAc
# In short: as §1
# [5] = target: Gal(a1-3)Gal(b1-3)[Fuc(a1-4)]GlcNAc(b1-2)Man(a1-3)[Gal(a1-3)Gal(b1-3)[Fuc(a1-4)]GlcNAc(b1-2)Man(a1-6)]Man(b1-4)GlcNAc(b1-4)GlcNAc
# In short: as §1
# Gal(a1-3)Gal(b1-4)Glc = target: Gal(a1-3)Gal(b1-4)Glc
# In short: as §1
# Gal(a1-3)Gal(b1-4)GlcNAc = target: Gal(a1-3)Gal(b1-4)GlcNAc
# In short: as §1
# [6] = target: Gal(a1-3)Gal(b1-4)GlcNAc(b1-2)Man
# In short: as §1
# [7] = target: Gal(a1-3)Gal(b1-4)GlcNAc(b1-2)Man(a1-3)[Gal(a1-3)Gal(b1-4)GlcNAc(b1-2)Man(a1-6)]Man(b1-4)GlcNAc(b1-4)GlcNAc
# In short: as §1
# [8] = target: Gal(a1-3)Gal(b1-4)GlcNAc(b1-3)GalNAc
# In short: as §1
# [9] = target: Gal(a1-3)Gal(b1-4)GlcNAc(b1-6)GalNAc
# In short: as §1
# [10] = target: Gal(a1-3)Gal(b1-4)[Fuc(a1-3)]GlcNAc
# In short: as §1
# [11] = target: Gal(a1-3)Gal(b1-4)[Fuc(a1-3)]GlcNAc(b1-2)Man(a1-3)[Gal(a1-3)Gal(b1-4)[Fuc(a1-3)]GlcNAc(b1-2)Man(a1-6)]Man(b1-4)GlcNAc(b1-4)GlcNAc
# In short: as §1
# Gal(a1-3)GalNAc = target: Gal(a1-3)GalNAc
# In short: as §1
# [12] = target: Gal(a1-3)[Gal(a1-4)]Gal(b1-4)GlcNAc
# In short: as §1
# [13] = target: Gal(a1-4)Gal(b1-3)GlcNAc(b1-2)Man(a1-3)[Gal(a1-4)Gal(b1-3)GlcNAc(b1-2)Man(a1-6)]Man(b1-4)GlcNAc(b1-4)GlcNAc
# In short: as §1
# Gal(a1-4)Gal(b1-4)Glc = target: Gal(a1-4)Gal(b1-4)Glc
# In short: as §1
# Gal(a1-4)Gal(b1-4)GlcNAc = target: Gal(a1-4)Gal(b1-4)GlcNAc
# In short: as §1
# [14] = target: Gal(a1-4)Gal(b1-4)GlcNAc(b1-2)Man(a1-3)[Gal(a1-4)Gal(b1-4)GlcNAc(b1-2)Man(a1-6)]Man(b1-4)GlcNAc(b1-4)GlcNAc
# In short: as §1
# [15] = target: Gal(a1-4)Gal(b1-4)GlcNAc(b1-3)Gal(b1-4)Glc
# In short: as §1
# Gal(a1-4)GlcNAc = target: Gal(a1-4)GlcNAc
# In short: as §1
# Gal(a1-6)Glc = target: Gal(a1-6)Glc
# In short: as §1
# Gal(b1-2)Gal = target: Gal(b1-2)Gal
# In short: as §1
# Gal(b1-3)Gal = target: Gal(b1-3)Gal
# In short: as §1
# Gal(b1-3)Gal(b1-4)GlcNAc = target: Gal(b1-3)Gal(b1-4)GlcNAc
# In short: as §1
# [16] = target: Gal(b1-3)Gal(b1-4)GlcNAc(b1-2)Man(a1-3)[Gal(b1-3)Gal(b1-4)GlcNAc(b1-2)Man(a1-6)]Man(b1-4)GlcNAc(b1-4)GlcNAc
# In short: as §1
# Gal(b1-3)GalNAc = target: Gal(b1-3)GalNAc
# In short: as §1
# [17] = target: Gal(b1-3)GalNAc(a1-3)[Fuc(a1-2)]Gal(b1-4)Glc
# In short: as §1
# [18] = target: Gal(b1-3)GalNAc(a1-3)[Fuc(a1-2)]Gal(b1-4)GlcNAc
# In short: as §1
# Gal(b1-3)GalNAc(b1-3)Gal = target: Gal(b1-3)GalNAc(b1-3)Gal
# In short: as §1
# [19] = target: Gal(b1-3)GalNAc(b1-3)Gal(a1-4)Gal(b1-4)Glc
# In short: as §1
# [20] = target: Gal(b1-3)GalNAc(b1-4)Gal(b1-4)Glc
# In short: as §1
# [21] = target: Gal(b1-3)GalNAc(b1-4)Gal3S(b1-4)Glc
# In short: as §1
# [22] = target: Gal(b1-3)GalNAc(b1-4)[Neu5Ac(a2-3)]Gal(b1-4)Glc
# In short: as §1
# [23] = target: Gal(b1-3)GalNAc(b1-4)[Neu5Gc(a2-3)]Gal(b1-4)Glc
# In short: as §1
# Gal(b1-3)GlcNAc = target: Gal(b1-3)GlcNAc
# In short: as §1
# [24] = target: Gal(b1-3)GlcNAc(a1-3)Gal(b1-4)GlcNAc
# In short: as §1
# [25] = target: Gal(b1-3)GlcNAc(a1-6)Gal(b1-4)GlcNAc
# In short: as §1
# Gal(b1-3)GlcNAc(b1-2)Man = target: Gal(b1-3)GlcNAc(b1-2)Man
# In short: as §1
# [26] = target: Gal(b1-3)GlcNAc(b1-2)Man(a1-3)[Gal(b1-3)GlcNAc(b1-2)Man(a1-6)]Man(b1-4)GlcNAc(b1-4)GlcNAc
# In short: as §1
# [27] = target: Gal(b1-3)GlcNAc(b1-2)Man(a1-3)[Gal(b1-3)GlcNAc(b1-2)Man(a1-6)]Man(b1-4)GlcNAc(b1-4)[Fuc(a1-6)]GlcNAc
# In short: as §1
# [28] = target: Gal(b1-3)GlcNAc(b1-2)Man(a1-3)[GlcNAc(b1-4)][Gal(b1-3)GlcNAc(b1-2)Man(a1-6)]Man(b1-4)GlcNAc(b1-4)GlcNAc
# In short: as §1
# [29] = target: Gal(b1-3)GlcNAc(b1-2)[Gal(b1-3)GlcNAc(b1-6)]Man(a1-6)[Gal(b1-3)GlcNAc(b1-2)Man(a1-3)]Man(b1-4)GlcNAc(b1-4)GlcNAc
# In short: as §1
# [30] = target: Gal(b1-3)GlcNAc(b1-3)Gal(b1-3)GlcNAc
# In short: as §1
# [31] = target: Gal(b1-3)GlcNAc(b1-3)Gal(b1-4)Glc
# In short: as §1
binder,measurement,setting,value
"CLEC5A (Homo sapiens), Q9NY25 (protein) MNWHMIISGLIVVVLKVVGMTLFLLYFPQIFNKSNDGFTTTRSYGTVSQIFGSSSPSPNGFITTRSYGTVCPKDWEFYQARCFFLSTSESSWNESRDFCKGKGSTLAIVNTPEKLKFLQDITDAEKYFIGLIYHREEKRWRWINNSVFNGNVTNQNQNFNCATIGLTKTFDAASCDISYRRICEKNAK",glycan array binding signal (z-score),[1],-0.145
same,glycan array binding signal (z-score),[2],0.889
same,glycan array binding signal (z-score),[3],0.061
same,glycan array binding signal (z-score),[4],0.047
same,glycan array binding signal (z-score),[5],-0.152
same,glycan array binding signal (z-score),Gal(a1-3)Gal(b1-4)Glc,-0.108
same,glycan array binding signal (z-score),Gal(a1-3)Gal(b1-4)GlcNAc,-0.039
same,glycan array binding signal (z-score),[6],-0.219
same,glycan array binding signal (z-score),[7],0.478
same,glycan array binding signal (z-score),[8],0.073
same,glycan array binding signal (z-score),[9],-0.038
same,glycan array binding signal (z-score),[10],-0.102
same,glycan array binding signal (z-score),[11],-0.057
same,glycan array binding signal (z-score),Gal(a1-3)GalNAc,-0.38
same,glycan array binding signal (z-score),[12],0.669
same,glycan array binding signal (z-score),[13],0.916
same,glycan array binding signal (z-score),Gal(a1-4)Gal(b1-4)Glc,-0.027
same,glycan array binding signal (z-score),Gal(a1-4)Gal(b1-4)GlcNAc,-0.183
same,glycan array binding signal (z-score),[14],0.327
same,glycan array binding signal (z-score),[15],-0.093
same,glycan array binding signal (z-score),Gal(a1-4)GlcNAc,-0.125
same,glycan array binding signal (z-score),Gal(a1-6)Glc,1.53
same,glycan array binding signal (z-score),Gal(b1-2)Gal,-0.149
same,glycan array binding signal (z-score),Gal(b1-3)Gal,-0.331
same,glycan array binding signal (z-score),Gal(b1-3)Gal(b1-4)GlcNAc,0.082
same,glycan array binding signal (z-score),[16],2.62
same,glycan array binding signal (z-score),Gal(b1-3)GalNAc,-0.065
same,glycan array binding signal (z-score),[17],0.375
same,glycan array binding signal (z-score),[18],0.4
same,glycan array binding signal (z-score),Gal(b1-3)GalNAc(b1-3)Gal,-0.077
same,glycan array binding signal (z-score),[19],-0.562
same,glycan array binding signal (z-score),[20],-0.149
same,glycan array binding signal (z-score),[21],-0.32
same,glycan array binding signal (z-score),[22],-0.23
same,glycan array binding signal (z-score),[23],-0.031
same,glycan array binding signal (z-score),Gal(b1-3)GlcNAc,-0.169
same,glycan array binding signal (z-score),[24],-0.184
same,glycan array binding signal (z-score),[25],-0.327
same,glycan array binding signal (z-score),Gal(b1-3)GlcNAc(b1-2)Man,-0.045
same,glycan array binding signal (z-score),[26],-0.204
same,glycan array binding signal (z-score),[27],0.056
same,glycan array binding signal (z-score),[28],0.22
same,glycan array binding signal (z-score),[29],0.051
same,glycan array binding signal (z-score),[30],-0.038
same,glycan array binding signal (z-score),[31],-0.282
